Results taken from the supplement of paper PMC8728848.
The list shows a part of the results.

Legend:
Assay in all cases: glycan array binding signal (z-score within array); higher = stronger binding
Conditions in all cases: glycan notation: IUPAC condensed, linker removed
[1] = biological target: Gal(b1-3)GlcNAc(b1-2)Man(a1-3)[Gal(b1-3)GlcNAc(b1-2)Man(a1-6)]Man(b1-4)GlcNAc(b1-4)[Fuc(a1-6)]GlcNAc
Method in brief: (§1)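 From the Consortium for Functional Glycomics database, 3228 arrays were curated, keeping only those whose protein sequence was available. Binding is given as a within-array Z-score averaged across arrays sharing a protein sequence and across linkers. Negative Z-scores can be read as non-binding.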

[2] = biological target: Gal(b1-3)GlcNAc(b1-2)Man(a1-3)[GlcNAc(b1-4)][Gal(b1-3)GlcNAc(b1-2)Man(a1-6)]Man(b1-4)GlcNAc(b1-4)GlcNAc
Method in brief: as §1

[3] = biological target: Gal(b1-3)GlcNAc(b1-2)[Gal(b1-3)GlcNAc(b1-6)]Man(a1-6)[Gal(b1-3)GlcNAc(b1-2)Man(a1-3)]Man(b1-4)GlcNAc(b1-4)GlcNAc
Method in brief: as §1

[4] = biological target: Gal(b1-3)GlcNAc(b1-3)Gal(b1-3)GlcNAc
Method in brief: as §1

[5] = biological target: Gal(b1-3)GlcNAc(b1-3)Gal(b1-4)Glc
Method in brief: as §1

[6] = biological target: Gal(b1-3)GlcNAc(b1-3)Gal(b1-4)GlcNAc
Method in brief: as §1

[7] = biological target: Gal(b1-3)GlcNAc(b1-3)Gal(b1-4)GlcNAc(b1-2)Man(a1-3)[Gal(b1-3)GlcNAc(b1-3)Gal(b1-4)GlcNAc(b1-2)Man(a1-6)]Man(b1-4)GlcNAc(b1-4)GlcNAc
Method in brief: as §1

[8] = biological target: Gal(b1-3)GlcNAc(b1-3)Gal(b1-4)GlcNAc(b1-2)[Gal(b1-3)GlcNAc(b1-3)Gal(b1-4)GlcNAc(b1-6)]Man(a1-6)[Gal(b1-3)GlcNAc(b1-3)Gal(b1-4)GlcNAc(b1-2)Man(a1-3)]Man(b1-4)GlcNAc(b1-4)[Fuc(a1-6)]GlcNAc
Method in brief: as §1

[9] = biological target: Gal(b1-3)GlcNAc(b1-3)Gal(b1-4)GlcNAc(b1-3)Gal(b1-4)GlcNAc(b1-2)[Gal(b1-3)GlcNAc(b1-3)Gal(b1-4)GlcNAc(b1-3)Gal(b1-4)GlcNAc(b1-6)]Man(a1-6)[Gal(b1-3)GlcNAc(b1-3)Gal(b1-4)GlcNAc(b1-3)Gal(b1-4)GlcNAc(b1-2)Man(a1-3)]Man(b1-4)GlcNAc(b1-4)[Fuc(a1-6)]GlcNAc
Method in brief: as §1

[10] = biological target: Gal(b1-3)GlcNAc(b1-3)Gal(b1-4)GlcNAc(b1-6)[Gal(b1-3)GlcNAc(b1-3)]Gal(b1-4)Glc
Method in brief: as §1

[11] = biological target: Gal(b1-3)GlcNAc(b1-3)Gal(b1-4)[Fuc(a1-3)]GlcNAc
Method in brief: as §1

[12] = biological target: Gal(b1-3)GlcNAc(b1-3)Gal(b1-4)[Fuc(a1-3)]GlcNAc(b1-6)[Gal(b1-3)GlcNAc(b1-3)]Gal(b1-4)Glc
Method in brief: as §1

[13] = biological target: Gal(b1-3)GlcNAc(b1-3)GalNAc
Method in brief: as §1

[14] = biological target: Gal(b1-3)GlcNAc(b1-6)Gal(b1-4)GlcNAc
Method in brief: as §1

[15] = biological target: Gal(b1-3)GlcNAc(b1-6)GalNAc
Method in brief: as §1

[16] = biological target: Gal(b1-3)GlcNAc(b1-6)[Gal(b1-3)]GalNAc
Method in brief: as §1

Gal(b1-3)GlcNAc6S = biological target: Gal(b1-3)GlcNAc6S
Method in brief: as §1

[17] = biological target: Gal(b1-3)[Fuc(a1-4)]GlcNAc
Method in brief: as §1

[18] = biological target: Gal(b1-3)[Fuc(a1-4)]GlcNAc(b1-2)Man
Method in brief: as §1

[19] = biological target: Gal(b1-3)[Fuc(a1-4)]GlcNAc(b1-2)Man(a1-3)[Gal(b1-3)[Fuc(a1-4)]GlcNAc(b1-2)Man(a1-6)]Man(b1-4)GlcNAc(b1-4)[Fuc(a1-6)]GlcNAc
Method in brief: as §1

[20] = biological target: Gal(b1-3)[Fuc(a1-4)]GlcNAc(b1-3)Gal(b1-3)[Fuc(a1-4)]GlcNAc
Method in brief: as §1

[21] = biological target: Gal(b1-3)[Fuc(a1-4)]GlcNAc(b1-3)Gal(b1-4)[Fuc(a1-3)]GlcNAc
Method in brief: as §1

[22] = biological target: Gal(b1-3)[Fuc(a1-4)]GlcNAc(b1-6)GalNAc
Method in brief: as §1

[23] = biological target: Gal(b1-3)[GlcNAc(b1-6)]GalNAc
Method in brief: as §1

[24] = biological target: Gal(b1-3)[Neu5Ac(a2-6)]GalNAc
Method in brief: as §1

[25] = biological target: Gal(b1-3)[Neu5Ac(a2-6)]GlcNAc(b1-4)Gal(b1-4)Glc
Method in brief: as §1

[26] = biological target: Gal(b1-3)[Neu5Ac(b2-6)]GalNAc
Method in brief: as §1

Gal(b1-4)Gal = biological target: Gal(b1-4)Gal
Method in brief: as §1

[27] = biological target: Gal(b1-4)GalNAc(a1-3)[Fuc(a1-2)]Gal(b1-4)GlcNAc
Method in brief: as §1

[28] = biological target: Gal(b1-4)GalNAc(b1-3)[Fuc(a1-2)]Gal(b1-4)GlcNAc
Method in brief: as §1

Gal(b1-4)Glc = biological target: Gal(b1-4)Glc
Method in brief: as §1

Gal(b1-4)Glc6S = biological target: Gal(b1-4)Glc6S
Method in brief: as §1

Gal(b1-4)GlcNAc = biological target: Gal(b1-4)GlcNAc
Method in brief: as §1

[29] = biological target: Gal(b1-4)GlcNAc(a1-6)Gal(b1-4)GlcNAc
Method in brief: as §1

Gal(b1-4)GlcNAc(b1-2)Man = biological target: Gal(b1-4)GlcNAc(b1-2)Man
Method in brief: as §1

[30] = biological target: Gal(b1-4)GlcNAc(b1-2)Man(a1-3)Man(b1-4)GlcNAc(b1-4)GlcNAc
Method in brief: as §1

[31] = biological target: Gal(b1-4)GlcNAc(b1-2)Man(a1-3)[Gal(b1-4)GlcNAc(b1-2)Man(a1-6)]Man(b1-4)GlcNAc(b1-4)GlcNAc
Method in brief: as §1

[32] = biological target: Gal(b1-4)GlcNAc(b1-2)Man(a1-3)[Gal(b1-4)GlcNAc(b1-2)Man(a1-6)]Man(b1-4)GlcNAc(b1-4)[Fuc(a1-6)]GlcNAc
Method in brief: as §1

[33] = biological target: Gal(b1-4)GlcNAc(b1-2)Man(a1-3)[Gal(b1-4)GlcNAc(b1-2)Man(a1-6)][Gal(b1-4)GlcNAc(b1-4)]Man(b1-4)GlcNAc(b1-4)[Fuc(a1-6)]GlcNAc
Method in brief: as §1

[34] = biological target: Gal(b1-4)GlcNAc(b1-2)Man(a1-3)[Gal(b1-4)GlcNAc(b1-2)Man(a1-6)][GlcNAc(b1-4)]Man(b1-4)GlcNAc(b1-4)[Fuc(a1-6)]GlcNAc
Method in brief: as §1

[35] = biological target: Gal(b1-4)GlcNAc(b1-2)Man(a1-3)[GlcNAc(b1-2)Man(a1-6)]Man(b1-4)GlcNAc(b1-4)GlcNAc
Method in brief: as §1

[36] = biological target: Gal(b1-4)GlcNAc(b1-2)Man(a1-3)[GlcNAc(b1-4)][Gal(b1-4)GlcNAc(b1-2)Man(a1-6)]Man(b1-4)GlcNAc(b1-4)GlcNAc
Method in brief: as §1

[37] = biological target: Gal(b1-4)GlcNAc(b1-2)Man(a1-3)[Man(a1-6)]Man(b1-4)GlcNAc(b1-4)GlcNAc
Method in brief: as §1

[38] = biological target: Gal(b1-4)GlcNAc(b1-2)Man(a1-6)Man(b1-4)GlcNAc(b1-4)GlcNAc
Method in brief: as §1

[39] = biological target: Gal(b1-4)GlcNAc(b1-2)Man(a1-6)[GlcNAc(b1-2)Man(a1-3)]Man(b1-4)GlcNAc(b1-4)GlcNAc
Method in brief: as §1

B1: Microvirin-2 (Microcystis aeruginosa) (protein)
chain: MPNFSHTCSSINYDPDSTILSAECQARDGEWLPTELRLSDHIGNIDGELQFGDQNFQETCQDCHLEFGDGEQSVWLVCTCQTMDGEWKSTQILLDSQIDNNDSQLEIGGSMPNFSHTCSSINYDPDSTILSAECQARDGEWLPTELRLSDHIGNIDGELQFGDQNFQETCQDCHLEFGDGEQSVWLVCTCQTMDGEWKSTQILLDSQIDNNDSQLEIG
glycan array binding signal (z-score) [1]: -0.093 | glycan array binding signal (z-score) [2]: 0.148 | glycan array binding signal (z-score) [3]: 0.082 | glycan array binding signal (z-score) [4]: -0.13 | glycan array binding signal (z-score) [5]: -0.131 | glycan array binding signal (z-score) [6]: -0.149 | glycan array binding signal (z-score) [7]: -0.056 | glycan array binding signal (z-score) [8]: 0.394 | glycan array binding signal (z-score) [9]: 0.408 | glycan array binding signal (z-score) [10]: -0.146 | glycan array binding signal (z-score) [11]: -0.125 | glycan array binding signal (z-score) [12]: -0.137 | glycan array binding signal (z-score) [13]: -0.139 | glycan array binding signal (z-score) [14]: -0.135 | glycan array binding signal (z-score) [15]: -0.143 | glycan array binding signal (z-score) [16]: -0.07 | glycan array binding signal (z-score) (Gal(b1-3)GlcNAc6S): -0.129 | glycan array binding signal (z-score) [17]: -0.137 | glycan array binding signal (z-score) [18]: -0.143 | glycan array binding signal (z-score) [19]: 0.648 | glycan array binding signal (z-score) [20]: -0.142 | glycan array binding signal (z-score) [21]: -0.141 | glycan array binding signal (z-score) [22]: -0.126 | glycan array binding signal (z-score) [23]: -0.132 | glycan array binding signal (z-score) [24]: -0.14 | glycan array binding signal (z-score) [25]: -0.147 | glycan array binding signal (z-score) [26]: -0.142 | glycan array binding signal (z-score) (Gal(b1-4)Gal): -0.143 | glycan array binding signal (z-score) [27]: -0.136 | glycan array binding signal (z-score) [28]: -0.138 | glycan array binding signal (z-score) (Gal(b1-4)Glc): -0.136 | glycan array binding signal (z-score) (Gal(b1-4)Glc6S): -0.134 | glycan array binding signal (z-score) (Gal(b1-4)GlcNAc): -0.131 | glycan array binding signal (z-score) [29]: -0.136 | glycan array binding signal (z-score) (Gal(b1-4)GlcNAc(b1-2)Man): -0.121 | glycan array binding signal (z-score) [30]: -0.134 | glycan array binding signal (z-score) [31]: -0.125 | glycan array binding signal (z-score) [32]: -0.134 | glycan array binding signal (z-score) [33]: -0.125 | glycan array binding signal (z-score) [34]: -0.146 | glycan array binding signal (z-score) [35]: -0.135 | glycan array binding signal (z-score) [36]: -0.145 | glycan array binding signal (z-score) [37]: -0.116 | glycan array binding signal (z-score) [38]: -0.128 | glycan array binding signal (z-score) [39]: -0.136
